Several values for one entry are separate records, joined by “and”; a condition that tells them apart may be missing. Identical values can stand only once. Whole data set: some 5,300 compounds, median “PER2::LUC luminescence relative to vehicle control” near 0.96, cut for the highest 2% near 1.3. The list shows a part of the results.
Test system: mPer2Luc MEF
Experiment: PER2::LUC luminescence relative to vehicle control (fold of vehicle); higher = higher PER2::LUC reporter signal
Conditions: 10 µM
Summary of the method: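 Mouse embryonic fibroblasts carrying the mPer2Luc reporter were seeded at ~3000 cells per well in 384-well plates, 48 h before compounds from commercial libraries were added at 10 μM. Cells were grown in DMEM with 10% FBS at 37 °C and 5% CO2. Luminescence was read with the ONE-Glo luciferase assay system 24 h and 30 h after treatment, followed by an alamarBlue viability assay. The value is PER2::LUC luminescence as fold of vehicle control.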

Row | Structure (SMILES) | PER2::LUC luminescence (time after treatment 24 h) | PER2::LUC luminescence (time after treatment 30 h)
1 | COc1cc(C=C(C#N)C#N)cc(O)c1O | 0.857 | 0.943
2 | CC(C)[C@@]1(O)[C@@H](OC(=O)c2ccc[nH]2)[C@@]2(O)[C@@]3(C)C[C@]4(O)O[C@@]5([C@H](O)[C@@H](C)CC[C@]35O)[C@@]2(O)[C@@]14C | 0.918 | 0.947
3 | C[C@]12CCC(=O)C[C@@H]1CC[C@@H]1[C@@H]2CC[C@@]2(C)[C@H]1CC[C@]2(C)O | 0.841 | 0.841
4 | NC(=O)CN1CC(O)CC1=O (configuration not stated) | 0.992 | 0.948
5 | CC[C@H](C)[C@@H]([C@@H](CC(=O)N1CCC[C@H]1[C@H](OC)[C@@H](C)C(=O)N[C@H](C)[C@@H](O)c1ccccc1)OC)N(C)C(=O)[C@@H](NC(=O)[C@@H](NC)C(C)C)C(C)C | 0.378 | 0.38
6 | C[N+](C)(C)CC#CCN1CCCC1=O | 0.927 | 1.11
7 | NC(=O)c1ccc(OCC(O)CN2CC=C(c3ccc(F)cc3)CC2)cc1 (configuration not stated) | 1.21 | 1.19
8 | CC(C)=CC1C(C(=O)OCc2cccc(Oc3ccccc3)c2)C1(C)C (configuration not stated) | 0.952 | 0.891
9 | Clc1ccc([C@]23CNC[C@H]2C3)cc1Cl | 0.901 | 0.838
10 | Cc1ncc2n1-c1ccc(Cl)cc1C(c1ccccc1F)=NC2 | 0.948 | 0.97
11 | CC1(C)C(=O)C=C[C@]2(C)[C@H]3CC[C@@]4(C)[C@H](c5ccoc5)OC(=O)[C@H]5O[C@]54[C@]3(C)[C@H](O)C[C@@H]12 | 0.639 | 0.941
12 | COc1ccc(CNC(=O)/C=C/c2ccc3[nH]cc(CCN(C)C)c3c2)cc1 | 0.993 | 1.09
13 | C[CH2][Hg][S]c1ccccc1C(=O)[O-].[Na+] | 0.678 | 0.66
14 | NC(=O)C[S@@+]([O-])C(c1ccccc1)c1ccccc1 | 0.864 | 0.961
15 | CC(N)Cc1c[nH]c2ccc(OCc3cccs3)cc12 (configuration not stated) | 0.886 and 0.602 | 0.834 and 0.602
16 | CN1CCC(c2c[nH]c3ccc(O)cc23)CC1 | 0.846 | 0.853
17 | CC(C)[C@@]1(NC(=O)[C@@H]2C[C@@H]3c4cccc5[nH]cc(c45)C[C@H]3N(C)C2)O[C@@]2(O)[C@@H]3CCCN3C(=O)[C@H](Cc3ccccc3)N2C1=O | 0.916 and 0.676 | 0.977 and 0.623
18 | CC(=O)C1=C(O)[C@@H]2[C@H]3c4c[nH]c5cccc(c45)C[C@H]3C(C)(C)N2C1=O | 1.07 | 1.1
19 | O=C1C=C2C=C[C@@H]3C[C@@]2(O1)[C@H]1CCCCN31 | 1 | 0.891
20 | O[C@H]1[C@H]2[C@H](O)CCCN2C[C@H]1O | 1.04 | 1.02
21 | Oc1noc2c1CCNC2 | 1.08 | 0.97
22 | NCCc1cccc(O)c1 | 0.979 | 0.922
23 | CC(=O)OC12CC(C)C3(O)C4C=C(C)C(=O)[C@@]4(O)CC(CO)=C[C@H]3C1C2(C)C (some centres not stated) | 1.15 | 0.967
24 | C/C=C(/C)C(=O)O[C@H]1CC[C@@]2(C)[C@@H]3CC[C@H]4[C@]5(O)C[C@H](O)[C@@]6(O)[C@@H](CN7C[C@@H](C)CC[C@H]7[C@@]6(C)O)[C@]5(O)C[C@@]42O[C@]13O | 1.1 | 1.03
25 | CCCC(C)C1(CC)C(=O)NC(=S)NC1=O (configuration not stated) | 1.03 | 0.99
26 | C[C@@H]1O[C@@H](O[C@H]2C[C@@H](O)[C@]3(CO)[C@H]4[C@H](O)C[C@]5(C)[C@@H](C6=CC(=O)OC6)CC[C@]5(O)[C@@H]4CC[C@]3(O)C2)[C@H](O)[C@H](O)[C@H]1O | 1.13 and 1.02 and 0.6 | 0.934 and 0.85 and 0.722

Row | Structure (SMILES) | PER2::LUC luminescence (time after treatment 24 h) | PER2::LUC luminescence (time after treatment 30 h)
27 | CC(C)C[C@H](NC(=O)[C@H](Cc1ccccc1)NC(=O)CNC(=O)[C@@H](CSC(C)(C)C)NC(=O)[C@@H](N)Cc1ccc(O)cc1)C(=O)N[C@H](C(=O)OC(C)(C)C)[C@@H](C)O | 0.915 | 0.922
28 | COc1ccc2c3c([nH]c2c1)C(C)=NCC3 | 0.894 | 0.968
29 | C[C@@H](N)Cc1cnc[nH]1 | 1.02 and 0.942 | 1.03 and 0.837
30 | Cc1cc(O)c2c(=O)c3c(O)cc(O)c4c5c(O)cc(O)c6c(=O)c7c(O)cc(C)c8c1c2c(c34)c(c78)c65 | 1 | 0.956
31 | [N-]=[N+]=CC(=O)OC[C@H](N)C(=O)O | 0.86 | 0.969
32 | Cc1nc(N)sc1CCN | 0.98 | 1.03
33 | C[N+]1([O-])[C@@H]2CC[C@H]1C[C@@H](OC(=O)C(CO)c1ccccc1)C2 (some centres not stated) | 1 and 1.01 | 0.993 and 0.843
34 | NCCCP(=O)(O)CC1CCCCC1 | 1.02 | 1.02
35 | O=C(O)CCCCCCNC1c2ccccc2CCc2ccccc21 | 1.03 | 0.973
36 | NCC(O)c1ccc(O)cc1 (racemic) | 0.998 and 1.02 | 1.12 and 0.951
37 | N=C1NC(=O)N2CC12 (configuration not stated) | 0.838 | 1.14
38 | CC[C@@H](c1cccc(O)c1)[C@@H](C)CN(C)C | 0.899 | 0.879
39 | CN(C(=O)Cc1ccc(Cl)c(Cl)c1)C(CN1CCCC1)c1cccc(OCC(=O)O)c1 (configuration not stated) | 0.985 | 0.782
40 | NCCc1ccc(O)cc1 | 1.03 and 0.947 | 0.942 and 0.934
41 | CN(C)C(=O)Oc1cc(OC(=O)N(C)C)cc(C(O)CNC(C)(C)C)c1 (configuration not stated) | 0.917 | 0.877
42 | CCn1cc(C(=O)O)c(=O)c2cc3c(cc21)OCO3 | 0.916 | 1.04
43 | C[C@]12CC[C@H](O)C[C@@H]1CC[C@@H]1[C@@H]2CC[C@]2(C)C(=O)CC[C@@H]12 | 0.895 | 0.872
44 | C[N+]1(C)[C@@H]2C[C@@H](OC(=O)[C@H](CO)c3ccccc3)C[C@H]1[C@@H]1O[C@@H]12 | 1.08 and 0.885 and 0.502 | 1.04 and 0.844 and 1.09
45 | C[C@@H]1OC(=O)[C@H]2C[C@H]3CCCC[C@@H]3[C@@H](/C=C/[C@H]3CCC[C@H](C)N3C)[C@@H]12 | 0.807 | 0.884
46 | CC1=C[C@]23C(=O)[C@@H](C=C(CO)[C@@H](O)[C@]2(O)[C@H]1O)[C@H]1[C@@H](C[C@H]3C)C1(C)C | 0.981 | 0.957
47 | CC(C)C[C@H](NC(=O)[C@H](Cc1ccccc1)NC(=O)CNC(=O)[C@@H](CO)NC(=O)[C@@H](N)Cc1ccc(O)cc1)C(=O)N[C@H](C(=O)O)[C@@H](C)O | 1.02 | 1.01
48 | C[C@H](Cc1ccc2c(c1)OC(C(=O)O)(C(=O)O)O2)NC[C@H](O)c1cccc(Cl)c1 | 0.982 | 0.881
49 | CCC1(c2ccc(N)cc2)CCC(=O)NC1=O (configuration not stated) | 0.877 | 1.03
50 | C[N+]1(C)CCN(c2ccccc2)CC1 | 0.844 | 0.997
51 | NC(=O)COc1c(F)cc(SCCNS(=O)(=O)c2ccccc2)cc1F | 0.994 | 0.795

— the supplement of paper PMC9334596
